Assay results published in article PMC11876601 (Molecular Systems Biology, 2025).

Tested on: PANC-1 cells
Experiment: Drug combination viability screen (ATPlite, 72 h)
Format: cell-based
Conditions: Homo sapiens
Description: Cell viability was assessed by measuring ATP levels to indicate metabolic activity.
Afterward, small amounts were transferred to 384-well intermediate plates (Greiner Bio-One GmbH, Germany). […] For drug combination screening, 1000 to 5000 cells were seeded into 384-well plates (CulturPlate™, Perkin Elmer, MA, USA) using a Multidrop™ Combi Reagent Dispenser (Thermo Scientific, MA, USA) in 50 µl medium per well 24 h prior to drug treatment (seeding densities see Appendix Table S1). […] The final DMSO concentration in each well was 0.2%. […] Eight wells per plate without library drug served as negative controls, and sixteen wells per plate containing 5 µM Staurosporine served as positive controls. Control plates not containing any drug were used to correct for incubation effects, and data quality was assessed by calculation of Z-prime of positive and negative controls according to1 Z-prime=1−3SDpos+3SDneg/[…] where SD is the standard deviation. […] Dose–response curves from the experimental and hypothetical data were compared, and shifts in AUC were used to describe combination effects (AUC∆ = AUChypothetical − AUCexperimental). […] Only combinations with R^2 > 0.8 in both conditions were considered in the synergy analysis.

Nc1ccn([C@@H]2O[C@H](CO)[C@@H](O)C2(F)F)c(=O)n1 [GEM, Gemcitabine]
EC50: 72 nM and 72.4 nM [columns of one line]

A number of entries come with more than one value. The other results are left out here. An entry can have further records. The values listed for one entry seem to repeat one measurement on other runs, samples or individuals.
